In PubChem BioAssay AID504332 (National Center for Advancing Translational Sciences (NCATS), 2011):
In all, about 350,000 compounds went through this assay and about 31,000 (8.9%) were called active. The shares of active, inactive and inconclusive entries below differ from those in the screen. Calls come from the whole dose curve; as a rule, active = well fitted inhibition curve with a large enough effect; inconclusive = small, poorly fitted or top-dose-only effect; inactive = no such curve, though single readings can be large or run the other way. Where the call is inconclusive, the potency comes from a doubtful curve fit.

Each molecule was assayed against Histone-lysine N-methyltransferase EHMT2 (Homo sapiens) (UniProt Q96KQ7) (assay: qHTS Assay for Inhibitors of Histone Lysine Methyltransferase G9a). Settings: G9a H3K9 monomethylation, AlphaScreen, 2 h; activity, negative = inhibition: at 59 µM (top of the series) unless noted.
Method in brief: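 Signal arises when biotinylated H3K9 peptide, once monomethylated, bridges streptavidin donor and antibody-captured acceptor beads. Enzyme at 20 nM was preincubated 15 min with test compounds; peptide 500 nM and SAM 20 uM then reacted for 2 h.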
% is set by controls: 0 for no effect and ±100 for the full control effect; potency is the fitted concentration of half-maximal effect; tags give direction and shape of the fitted curve.
Note: nearly all actives have a fitted effect of over 75% in size.

UniProt Q96KQ7, sequence (Q96KQ7 whole entry, looked up): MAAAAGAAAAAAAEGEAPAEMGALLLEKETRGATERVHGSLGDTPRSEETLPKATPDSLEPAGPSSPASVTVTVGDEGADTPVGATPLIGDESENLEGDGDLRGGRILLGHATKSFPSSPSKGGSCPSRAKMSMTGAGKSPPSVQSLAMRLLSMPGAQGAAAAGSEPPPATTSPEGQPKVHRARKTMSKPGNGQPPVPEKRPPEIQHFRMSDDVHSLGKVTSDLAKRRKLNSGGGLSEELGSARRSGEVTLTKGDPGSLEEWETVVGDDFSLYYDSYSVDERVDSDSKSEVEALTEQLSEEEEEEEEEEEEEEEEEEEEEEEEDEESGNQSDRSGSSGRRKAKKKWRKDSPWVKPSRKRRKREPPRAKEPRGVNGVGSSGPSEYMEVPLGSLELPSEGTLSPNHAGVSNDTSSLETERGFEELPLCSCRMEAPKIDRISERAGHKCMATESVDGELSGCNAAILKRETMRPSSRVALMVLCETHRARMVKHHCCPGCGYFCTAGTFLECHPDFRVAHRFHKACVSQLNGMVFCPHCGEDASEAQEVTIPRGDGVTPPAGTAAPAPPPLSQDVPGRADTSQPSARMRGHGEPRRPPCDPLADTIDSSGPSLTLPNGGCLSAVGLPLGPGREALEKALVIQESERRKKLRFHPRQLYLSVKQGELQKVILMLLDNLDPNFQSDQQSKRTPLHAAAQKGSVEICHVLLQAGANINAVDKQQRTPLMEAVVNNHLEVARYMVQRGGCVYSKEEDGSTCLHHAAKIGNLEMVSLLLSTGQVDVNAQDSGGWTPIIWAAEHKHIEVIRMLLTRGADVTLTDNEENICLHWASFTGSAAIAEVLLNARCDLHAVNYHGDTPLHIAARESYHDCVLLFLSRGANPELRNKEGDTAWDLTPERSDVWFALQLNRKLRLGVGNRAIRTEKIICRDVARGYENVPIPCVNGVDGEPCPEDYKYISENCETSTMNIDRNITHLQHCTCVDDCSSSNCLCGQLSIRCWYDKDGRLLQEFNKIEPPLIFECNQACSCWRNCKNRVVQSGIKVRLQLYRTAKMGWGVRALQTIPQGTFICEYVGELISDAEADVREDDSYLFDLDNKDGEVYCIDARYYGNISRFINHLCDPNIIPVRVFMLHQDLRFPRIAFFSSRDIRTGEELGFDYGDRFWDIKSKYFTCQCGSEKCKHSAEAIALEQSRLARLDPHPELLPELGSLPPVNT

Compound | Potency | activity, negative = inhibition
CCN(CC)CCNC(=O)c1ccc(NC(=O)c2cn(-c3ccccc3)nc2-c2cccs2)cc1 | inconclusive: 50.1 µM [inhibitor, partial curve, poor fit] | 
C/C(Cl)=C/Cn1c(SCc2ccc(Cl)cc2)nc2c1c(=O)[nH]c(=O)n2C |  | inconclusive: -73.9% [inhibitor]
Cc1cc(C(=O)OCC(=O)N2CC(=O)Nc3ccccc32)c(C)n1-c1ccccc1 | inconclusive: 39.8 µM [inhibitor, single point] | 
CN1c2cccc3cccc(c23)N(C)C1c1cccs1 | active: 15.8 µM | 
O=C(Oc1ccc2c(=O)c(Oc3ccc4ccccc4c3)coc2c1)c1cccnc1 | inconclusive: 89.1 µM [inhibitor, single point] | 
Cc1cc(Cl)ccc1OCC(=O)N/N=C/c1ccncc1 | inconclusive: 79.4 µM [inhibitor, partial curve, poor fit] | 
N#CCCN(CCC#N)S(=O)(=O)c1ccc(C(=O)Nc2nc(-c3ccccc3)c(C(=O)c3ccccc3)s2)cc1 |  | inconclusive: -52.7% [inhibitor]
CCOC(=O)c1cnc2c(Cl)c(Cl)ccc2c1Nc1ccc(N(C)C)cc1 | inconclusive: 2.82 µM [inhibitor, full curve, poor fit] | 
Nc1nonc1C(=O)N/N=C/c1cccc([N+](=O)[O-])c1 |  | inactive: 15.3%
Cc1cc(NS(=O)(=O)c2ccc(NC(=S)NC(=O)c3ccc(Br)cc3)cc2)no1 | inconclusive: 79.4 µM [inhibitor, single point] | 
CC(C)NC(=S)N=Nc1c(O)[nH]c2ccc([N+](=O)[O-])cc12 | inconclusive: 79.4 µM [inhibitor, single point] | 
CN(CC(=O)Nc1ccc(N2CCOCC2)cc1)C(=O)CSc1ccccc1F | inconclusive: 22.4 µM [inhibitor, single point] | 
C#CCN(C(=O)CC1C(=O)NCCN1C/C=C/c1ccccc1)C1CCCCC1 (stereo unspecified) |  | inactive: 2.99% [at 102 µM]
O=C(NCCS(=O)(=O)N1CCN(Cc2ccccc2)CC1)c1ccccc1 |  | inactive: 10.5% [at 102 µM]
Cc1ccc(S(=O)(=O)c2nc(-c3ccccc3)oc2NCCN2CCOCC2)cc1 | inconclusive: 2.82 µM [inhibitor, partial curve, poor fit] | 
COCCN(C(=O)COC(=O)/C=C/c1ccc(C)o1)c1c(N)n(Cc2ccccc2)c(=O)[nH]c1=O | inconclusive: 79.4 µM [inhibitor, single point] | 
C[C@H](NC(=O)[C@@H]1Cc2ccccc2CN1C(=O)OC(C)(C)C)C(=O)NCc1ccco1 |  | inactive: -12.5% [at 102 µM]
O=C(Cn1ccc2cc(S(=O)(=O)N3CCCCCC3)ccc21)NCCc1ccccc1Cl | inconclusive: 6.31 µM [inhibitor, partial curve, poor fit] | 
c1ccc(-c2nc(NCc3ccco3)c3ccccc3n2)nc1 | inconclusive: 50.1 µM [inhibitor, partial curve, poor fit] | 
CCCCSCCCNC(=O)c1cn(CC)c2ccc(S(=O)(=O)N(C)C3CCCCC3)cc2c1=O |  | inactive: -50.5%
COCCN=C1NN=C(c2ccc(C)c([N+](=O)[O-])c2)CS1 | active: 10 µM | 
Cc1ccc(C)c(-n2c(-c3ccc4c(c3)OCO4)n[nH]c2=S)c1 | active: 3.98 µM | 
Cc1ccc(-c2noc(CN(C(=O)c3ccc(C(C)(C)C)cc3)C(C)C)n2)cc1 |  | inactive: 9.02%

Compound | Potency | activity, negative = inhibition
O=S(=O)(c1ccccc1)n1nc(-c2ccc(Cl)cc2)nc1NCc1ccc(F)cc1 |  | inactive: 5.65%
COc1ccc(NC(=S)N2CCC(N(C)CCN3CCOCC3)CC2)cc1Cl |  | inactive: -6.44%
Cc1ccc2c(c1)c1c3n2CCN(CCC(=O)O)C3CCC1 (stereo unspecified) | active: 44.7 µM | 
O=C(CC(c1ccccc1)c1ccccc1O)N1CCCC1 (stereo unspecified) | inconclusive: 2 µM [inhibitor, partial curve, poor fit] | 
CN(c1ccccc1C(=O)O)S(C)(=O)=O | inconclusive: 22.4 µM [inhibitor, single point] | 
CN(CC(=O)NCc1ccc(Cl)cc1)S(=O)(=O)c1ccc2c(c1)c(=O)n(C)c(=O)n2C |  | inactive: -0.773%
Nc1nc(-c2ccc3ccccc3c2)c(C2(O)C(=O)Nc3c(Br)cc(F)cc32)s1 (stereo unspecified) |  | inactive: -11.5% [at 12.7 µM]
O=C(COC(=O)C1CCC1)NC(=O)c1ccccc1 | inconclusive: 79.4 µM [inhibitor, partial curve] | 
Cc1cc(C=C2C(=O)c3ccccc3C2=O)c(C)n1-c1ccccc1 |  | inactive: -11% [at 102 µM]
CCNc1nn2ccccc2c1/C=C(\C#N)C(=O)OCC |  | inactive: 2.93% [at 102 µM]
CCCn1c(SCC#N)nc2c(c1=O)C1(CCCC1)Cc1ccccc1-2 | inconclusive: 89.1 µM [inhibitor, single point] | 
CCN(C(=O)CSc1nc2ccccc2c(=O)n1-c1ccc(C)cc1)C1CCS(=O)(=O)C1 (stereo unspecified) | inconclusive: 50.1 µM [inhibitor, partial curve] | 
CCOC(=O)c1ccc(NC(=O)CSc2nnc(-c3cccs3)n2C)cc1 | inconclusive: 2.51 µM [inhibitor, partial curve, poor fit] | 
CCCC(c1nnnn1CS(=O)(=O)c1ccc(C)cc1)N1CCN(C2CCCC2)CC1 (stereo unspecified) | active: 50.1 µM | 
O=C(Cc1c[nH]c2ccccc12)Nc1ccc(N2CCOCC2)cc1 | active: 22.4 µM | 
COC(=O)C1=NNC(C(=O)c2ccco2)C1c1ccccc1 (stereo unspecified) | inconclusive: 39.8 µM [inhibitor, single point] | 
CCN(CC)c1ccc(NC(=S)Nc2ccc(F)cc2)cc1 | active: 12.6 µM | 
COc1cc(-c2nnc3n(CCc4ccccc4)c(=O)c4ccccc4n23)cc(OC)c1OC | active: 17.8 µM | 
CC(=O)Nc1cccc(NC(=O)CSc2nc(C)c(C)c(C)c2C#N)c1 | active: 10 µM | 
Cc1nc2ccccc2c2nc(N)nn12 |  | inactive: 4.42%
CCOC(=O)C1=C(O)/C(=C\c2cccc(OC)c2)N=C1C |  | inactive: -24.5% [at 102 µM]
COc1ccc(S(=O)(=O)Nc2nnc(CC(C)(C)C)s2)cc1 | active: 35.5 µM | 
CCOc1ccccc1NC(=O)Cn1c(=O)n(-c2ccc(C)c(C)c2)c(=O)c2c(C)c(C(=O)N(C)C)sc21 | inconclusive: 0.708 µM [inhibitor, full curve, poor fit] | 
